Results: patent US5798336A, “Antimicrobial peptides” (priority 1995, dated 1998)

Test system: P. aeruginosa ATCC 27853
Settings: Table 7B; dose to kill 90% of input cells in 2 h at 37° C. in 1/100 strength HBSS; about 10^7 CFU/ml

## CC[C@H](C)[C@H](NC(=O)[C@H](Cc1c[nH]c2ccccc12)NC(=O)[C@@H]1CCCN1C(=O)[C@H](CC(C)C)NC(=O)[C@H](Cc1ccccc1)NC(=O)[C@H](CO)NC(=O)[C@H](CO)NC(=O)[C@@H](NC(=O)[C@H](Cc1ccccc1)NC(=O)[C@H](CCCNC(=N)N)NC(=O)[C@@H](NC(=O)[C@H](Cc1ccccc1)NC(=O)[C@@H](NC(=O)[C@H](CCC(=O)O)NC(=O)[C@@H]1CCCN1C(=O)[C@@H]1CCCN1C(=O)[C@@H](NC(=O)CNC(=O)[C@H](CO)NC(=O)[C@H](CO)NC(=O)[C@H](CCCCN)NC(=O)CN)C(C)C)C(C)C)[C@@H](C)O)C(C)C)C(=O)N[C@@H](CCCNC(=N)N)C(=O)N[C@H](C(=O)N[C@H](C(=O)N[C@@H](CCSC)C(=O)N[C@@H](CCCNC(=N)N)C(=O)O)[C@@H](C)O)[C@@H](C)O [CG 198-223] (H-GKSSGVPPEVFTRFVSSFLPWIRTTMR-OH; N-terminus and C-terminus assumed)
  ED90: 115 mg/L (≈ 37.3 µM)

Values after ≈ are worked out from the molar mass of the structure shown. Where a SMILES comes first, the peptide text is derived from it.
